From the supplement of paper PMC11369174, “Proteome-scale characterisation of motif-based interactome rewiring by disease mutations” (Molecular Systems Biology, 2024)
Some of the results follow. Single values of this set are uncertain.

How the values were obtained:
Experiment in all cases: mutation enrichment score (mutant vs wild-type peptide binding to bait); baits are purified protein domains named by gene / domain / UniProt id / residues; peptides come from disordered regions of human proteins; higher = mutation enhances binding relative to wild type
EPS15_EH__P42566_121_215 = biological target: T1, EPS15_EH__P42566_121_215; settings: wild-type window: …
T1 chain: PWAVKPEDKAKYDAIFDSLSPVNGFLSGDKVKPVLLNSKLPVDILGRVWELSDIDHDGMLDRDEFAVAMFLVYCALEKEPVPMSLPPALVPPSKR

SHC_PH__P29353_149_317 = biological target: T2, SHC_PH__P29353_149_317; settings: number of wild-type / mutant comparisons summed (bounds the score): 6; paper call: no_effect; wild-type window: …
T2 chain: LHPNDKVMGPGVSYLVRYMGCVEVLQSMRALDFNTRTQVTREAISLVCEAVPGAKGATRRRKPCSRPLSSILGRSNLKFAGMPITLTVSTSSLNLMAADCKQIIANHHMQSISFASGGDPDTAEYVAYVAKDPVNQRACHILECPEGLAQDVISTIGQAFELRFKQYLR

[1] = biological target: T3, PEX14_Pex14__O75381_16_84; settings: number of wild-type / mutant comparisons summed (bounds the score): 6; paper call: no_effect; wild-type window: …
T3 chain: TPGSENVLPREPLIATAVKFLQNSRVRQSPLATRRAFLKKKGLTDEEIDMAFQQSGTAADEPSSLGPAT

REPS1___Q96D71_226_314 = settings: number of wild-type / mutant comparisons summed (bounds the score): 6; paper call: no_effect; wild-type window: …
[2] = biological target: EPS8_SH3_1_Q12929_534_598 (clone: EPS8L1_SH3_1_Q12929_534_598); settings: paper call: no_effect, wild-type window: …
EZR_FERM_1_P15311_2_295 = settings: number of wild-type / mutant comparisons summed (bounds the score): 5; paper call: no_effect; wild-type window: …
MSN_FERM_1_P26038_1_322 = biological target: T4, MSN_FERM_1_P26038_1_322; settings: number of wild-type / mutant comparisons summed (bounds the score): 6, wild-type window: …
T4 chain: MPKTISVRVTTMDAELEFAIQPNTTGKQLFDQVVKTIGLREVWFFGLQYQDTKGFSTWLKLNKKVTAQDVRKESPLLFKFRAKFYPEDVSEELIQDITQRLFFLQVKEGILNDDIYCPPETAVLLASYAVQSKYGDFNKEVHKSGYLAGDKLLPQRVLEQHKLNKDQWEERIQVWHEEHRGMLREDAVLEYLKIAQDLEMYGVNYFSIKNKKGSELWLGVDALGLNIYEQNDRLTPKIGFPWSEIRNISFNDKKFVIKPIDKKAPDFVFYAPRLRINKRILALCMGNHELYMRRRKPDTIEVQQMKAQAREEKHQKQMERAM

RDX_FERM_1_P35241_5_295 = biological target: T5, RDX_FERM_1_P35241_5_295; settings: number of wild-type / mutant comparisons summed (bounds the score): 6, wild-type window: …
T5 chain: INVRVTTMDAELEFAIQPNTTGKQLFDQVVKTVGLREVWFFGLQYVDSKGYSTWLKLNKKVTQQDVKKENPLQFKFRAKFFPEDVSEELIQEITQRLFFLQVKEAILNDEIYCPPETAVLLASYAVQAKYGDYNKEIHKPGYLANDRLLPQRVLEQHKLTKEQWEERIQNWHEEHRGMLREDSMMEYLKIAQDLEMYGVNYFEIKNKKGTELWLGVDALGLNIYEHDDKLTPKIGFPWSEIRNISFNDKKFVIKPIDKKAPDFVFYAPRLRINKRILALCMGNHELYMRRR

[3] = biological target: MAP1LC3A_ATG8__Q9H492_2_121; settings: number of wild-type / mutant comparisons summed (bounds the score): 12; paper call: diminished; wild-type window: …
[4] = number of wild-type / mutant comparisons summed (bounds the score): 6, paper call: no_effect
[5] = number of wild-type / mutant comparisons summed (bounds the score): 12, paper call: enhanced
[6] = number of wild-type / mutant comparisons summed (bounds the score): 12, paper call: no_effect
[7] = number of wild-type / mutant comparisons summed (bounds the score): 6

Chain of EZR_FERM_1_P15311_2_295 (chain, as listed by the source): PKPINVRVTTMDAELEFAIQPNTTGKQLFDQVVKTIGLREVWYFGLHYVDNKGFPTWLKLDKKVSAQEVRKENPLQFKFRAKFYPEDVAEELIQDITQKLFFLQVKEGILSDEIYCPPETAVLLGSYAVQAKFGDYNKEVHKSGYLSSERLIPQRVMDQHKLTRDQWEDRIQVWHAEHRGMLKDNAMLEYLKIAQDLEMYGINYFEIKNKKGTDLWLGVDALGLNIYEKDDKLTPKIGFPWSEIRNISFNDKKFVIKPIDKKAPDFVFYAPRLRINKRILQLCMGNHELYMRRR

B1: A282V A282V (peptide)
chain: PGGYNALRRMYTDIQEPMLNVAQEQFGGNPFASVGSSSSSG
mutation enrichment score (EPS15_EH__P42566_121_215; number of wild-type / mutant comparisons summed (bounds the score): 6, paper call: enhanced): 6

B2: Q1119R Q1119R (peptide)
chain: GHLEPTELLMNRAYLQSITPRGYSDSEERESMPRDGESEKE
mutation enrichment score (EPS15_EH__P42566_121_215; [4]): -3

B3: L502P L502P (peptide)
chain: KELSGLGSALKNPFGNAGLLPGEAGKQLRRRAGLGSGLSLS
mutation enrichment score (EPS15_EH__P42566_121_215; [4]): 0

B4: L1217P L1217P (peptide)
chain: KVIQAGMFDQKSSSHERRAFPQAILEHEEENEEEDEVPDDE
mutation enrichment score (EPS15_EH__P42566_121_215; [4]): -4

B5: R334W R334W (peptide)
chain: SKGFFSYRADIFVQNLVPDWWGPDGTFFGMFSIFFPSATGI
mutation enrichment score (EPS15_EH__P42566_121_215; [4]): 6
mutation enrichment score (SHC_PH__P29353_149_317): 6

B6: T562M T562M (peptide)
chain: FGGPLYYANKDFFLQSLYSLMGLDAGCMAARRKEGGSETGV
mutation enrichment score (EPS15_EH__P42566_121_215; [4]): 4.3

B7: V238M V238M (peptide)
chain: EGLNQGNPFIATSGPGHLSHMPQQSPSMAPSLRHSVQQFHH
mutation enrichment score (EPS15_EH__P42566_121_215; [4]): -4.5

B8: D2403Y D2403Y (peptide)
chain: PHKGLDCYLDSLFDPVLSYGYADLEKPTAIAYRMKGGGQPG
mutation enrichment score (EPS15_EH__P42566_121_215; [4]): 1.7

B9: G515S G515S (peptide)
chain: MKRAKVSQALFAKVAANKSQSWLCELLRWKENPSPENRTLW
mutation enrichment score (EPS15_EH__P42566_121_215; [4]): 5
mutation enrichment score [1]: 0.26

B10: N478D N478D (peptide)
chain: INIRQGREQNKPDSSPLYIQDPFETSLNISKNVSQSQLQKF
mutation enrichment score (EPS15_EH__P42566_121_215; number of wild-type / mutant comparisons summed (bounds the score): 12, paper call: diminished): -8

B11: S1221L S1221L (peptide)
chain: RPTGNTSWLMSLENPLSPFSLDINNMPLQELSNALMAAERF
mutation enrichment score (EPS15_EH__P42566_121_215; [5]): 3.6

B12: R1213W R1213W (peptide)
chain: NVDQKVIQAGMFDQKSSSHEWRAFLQAILEHEEENEEEDEV
mutation enrichment score (EPS15_EH__P42566_121_215; [5]): 7

B13: A490P A490P (peptide)
chain: LFVALQGCMDKGKELSGLGSPLKNPFGNAGLLLGEAGKQLR
mutation enrichment score (EPS15_EH__P42566_121_215; [6]): 0

B14: S3096G S3096G (peptide)
chain: QGTTPDTTPARTPTEEGTPTGEQNPFLFQEGKLFEMTRSGA
mutation enrichment score (EPS15_EH__P42566_121_215; [6]): -1.3

B15: N255K N255K (peptide)
chain: QEQAELDGTSGLAELDPEPTKPFQPIASVIIENEGKLEREK
mutation enrichment score (EPS15_EH__P42566_121_215; number of wild-type / mutant comparisons summed (bounds the score): 18, paper call: diminished): -8
mutation enrichment score (REPS1___Q96D71_226_314): -4

B16: A452V A452V (peptide)
chain: SEKAKNGRDTSLGSPKESENVLPIQVDYDAYDAQVFRLPGP
mutation enrichment score [2, 7]: 3

B17: Q465E Q465E (peptide)
chain: SPKESENALPIQVDYDAYDAEVFRLPGPSRAQCLTTCRSVR
mutation enrichment score [2, 7]: 3

B18: D76N D76N (peptide)
chain: ALEQGSPPDISPYEVPPLADNPAVAHLHHHLPAQLALPHPP
mutation enrichment score ([2]; number of wild-type / mutant comparisons summed (bounds the score): 12): 0

B19: R297T R297T (peptide)
chain: YIHQWEEIFHMTYDLASAVVTIFNLIGMMLLLCHWDGCLQF
mutation enrichment score (EZR_FERM_1_P15311_2_295): 3.5
mutation enrichment score (MSN_FERM_1_P26038_1_322; paper call: no_effect): 5.1
mutation enrichment score (RDX_FERM_1_P35241_5_295; paper call: no_effect): 2.7

B20: M79V M79V (peptide)
chain: AGGAGGGGGGGSRAPPEELSVFQLPTLNFSPEQVASVCETL
mutation enrichment score (EZR_FERM_1_P15311_2_295): 4
mutation enrichment score (MSN_FERM_1_P26038_1_322; paper call: enhanced): 6
mutation enrichment score (RDX_FERM_1_P35241_5_295; paper call: enhanced): 6

B21: L214P L214P (peptide)
chain: FIDKVRFLEQQNQVLQTKWEPLQQVDTSTRTHNLEPYFESF
mutation enrichment score (EZR_FERM_1_P15311_2_295): 3
mutation enrichment score [3]: -6
mutation enrichment score (MSN_FERM_1_P26038_1_322; paper call: no_effect): 2
mutation enrichment score (RDX_FERM_1_P35241_5_295; paper call: no_effect): 4.9
